Data as given in patent publication US12551573B2, “Compositions and methods for the targeting of PCSK9” (Scribe Therapeutics Inc., priority 2022, dated 2026).

B1: DOMAIN_19921 (protein, listed as Callorhinus ursinus)
chain: SHGPLSFEDVAIAFTKEEWQQLDPAQRTLYRDVMLENFSHLVSLGHPVSKPDIISKLEQGEEPWIIKRHISDWICPERETR
B2: DOMAIN_19944 (protein, listed as Zalophus californianus)
chain: SQEPVTFEDVAVYFTQNQWASLDPMQRALYLEVMLENYANITSLAALPFPKPDLILQLEQGGAPWGLDPWTPLEGEALGGV
B3: DOMAIN_19947 (protein, listed as Pan paniscus)
chain: MLMMFRDVAVDFSQEEWECLDLEQRGLYRDVMLENYSNMVSLGLCIYQPEAFSLLEKGKEPWKILRDETRGPCPDMQSRCQ
B4: DOMAIN_19967 (protein, listed as Tursiops truncatus)
chain: QAEVTFEDVAVLLSREEWGRLGPVQKGLYRDVMLETYRNLVSLGAGPAGPKPEVITQLERGDEPWVPDVQGRERPTIDGSA
B5: DOMAIN_19990 (protein, listed as Panthera pardus)
chain: PQEPVTFEDVAVYFTQNQWASLDPMQRALYREVMLENYTNMASLAFPFPKPVLVSHLERGEAPWGPDPWEAEVLRGICPGG
B6: DOMAIN_19993 (protein, listed as Tursiops truncatus)
chain: FQVLVSFEEVAVLLSQEEWGHLGPAQKRLYRDVMLETYGNLVSLGLQGSKPDVISKLEQGEEPWTPHSPRIEGSWIRRRRP
B7: DOMAIN_20012 (protein, listed as Leptonychotes weddellii)
chain: AQESVVFSDVSIDFSQEEWECLNDDQRDLYRDVMLENYSHLVSMAGHSVSKPDVISVLEQGKEPWLVDRELTREQWPVLES
B8: DOMAIN_20023 (protein, listed as Physeter macrocephalus)
chain: KSAAVSFSDVAVYFSLEEWGCLRPAQRALYRDVMRETYGHLGALGFPGPKPALISWMEQESEAWSPAAQDPEEGESLGGAL
B9: DOMAIN_235 (protein, listed as Pan paniscus)
chain: MDSVAFEDVAVNFTHEEWALLSPSQKNLYRDVMRETIRNLNCIGMKWENQNIDDQYQNLRRNPRCDVVERFGKSKDGSQCG
B10: DOMAIN_20089 (protein, listed as Panthera pardus)
chain: PQEPVTFEDVAVLFTPEEWMFLDSAQRSLYRDVMLENYRNVASVGDQLGKFSSFSHLEQGEEWWPTERRVFPGSCPEPSLP
B11: DOMAIN_20095 (protein, listed as Phascolarctos cinereus)
chain: FQVSVTFQDVAVDFSRDEWKRLDDAQKALYRDVMLENYENLVSLGLPVSKLDVISLLERREAPRRAKERVPRDLPPDSISQ
B12: DOMAIN_20115 (protein, listed as Physeter macrocephalus)
chain: HQEVVTFEDVAVYFTQTEWAGLSPAQRALYRSVMLEIYGNLTSLGYPVPKPALVSLLERGELPWGLETRDDPPAQGTKDIC
B13: DOMAIN_20134 (protein, listed as Acinonyx jubatus)
chain: FQDFVSFNDVSVNFTEEEWRELDPVQRVLYRDVMLENYRNLVSLGFPFSKPDIISQLEQAVNPWMQEGEVLRGSCTHLETR
B14: DOMAIN_20147 (protein, listed as Odocoileus virginianus)
chain: SKAPVTFGDLAIYFSQEEWEWLSPIQKDLYEDVMLENYQNLVSLGLCFRRPNVITLLEKGKAPWMVDPVKRRRGLDLGSKG
B15: DOMAIN_20171 (protein, listed as Trichechus manatus)
chain: ARESVVFSDVSIAFSQEEWAHLDLEQKDLYRDVMLENYSNLVSLAGCFVSKPDVISLLEQGKEPWKIVRKGRRRYPDLETR

Tested on: HBEGF locus
Type: cell-based, human
Conditions: high-throughput screen of dXR repression of the HBEGF gene
[1] = abundance of each domain in the library before vs after diphtheria toxin selection, listed domains met p-value <0.01 and log2(fold change) >2

Molecule | Log2 (fold change) [1] | Log2 (fold change) (change in abundance of each domain in the library before and after diphtheria toxin selection)
B1 | 2.0083 | 
B2 | 3.8559 | 
B3 | 2.2608 | 
B4 | 2.9548 | 
B5 | 3.5329 | 
B6 | 3.4227 | 
B7 | 3.8253 | 
B8 | 3.6893 | 
B9 |  | 2.9615
B10 | 4.2275 | 
B11 | 3.7141 | 
B12 | 3.1154 | 
B13 | 3.2457 | 
B14 | 3.7467 | 
B15 | 3.951 | 

Read-outs that look alike come from different tables or passages of the source.
